# Laboratory results from the supplement of paper PMC8728848.
# This is one part of the list.
# B1: GSL-I-B4 (Griffonia simplicifolia) (protein)
# chain: NFWSDVEDSIIFQGDANTTAGTLQLCKTNQYGTPLQWSAGRALYSDPVQLWDNKTESVASFYTEFTFFLKITGNGPADGLAFFLAPPDSDVKDAGEYLGLFNKSTATQPSKNQVVAVEFDTWTNPNFPEPSYRHIGINVNSIVSVATKRWEDSDIFSGKIATARISYDGSAEILTVVLSYPDGSDYILSHSVDMRQNLPESVRVGISASTGNNQFLTVYILSWRFSSNLQSTSVKAAMEPEITRTVV
# What was measured:
# Assay in all cases: glycan array binding signal (z-score within array); higher = stronger binding
# Conditions in all cases: glycan notation: IUPAC condensed, linker removed
# [1] = target: Fuc(a1-2)[GalNAc(a1-3)]Gal(b1-3)GlcNAc(b1-6)GalNAc
# Summary of the method: (§1)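 The Consortium for Functional Glycomics database supplied 3228 glycan arrays, of which those lacking an available protein sequence were dropped. The binding signal, a within-array Z-score, was averaged across arrays of the same protein sequence and across linkers. Negative scores can be read as non-binding.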
# [2] = target: Fuc(a1-2)[GalNAc(a1-3)]Gal(b1-4)Glc
# Summary of the method: as §1
# [3] = target: Fuc(a1-2)[GalNAc(a1-3)]Gal(b1-4)GlcNAc
# Summary of the method: as §1
# [4] = target: Fuc(a1-2)[GalNAc(a1-3)]Gal(b1-4)GlcNAc(b1-2)Man
# Summary of the method: as §1
# [5] = target: Fuc(a1-2)[GalNAc(a1-3)]Gal(b1-4)GlcNAc(b1-2)Man(a1-3)[Fuc(a1-2)[GalNAc(a1-3)]Gal(b1-4)GlcNAc(b1-2)Man(a1-6)]Man(b1-4)GlcNAc(b1-4)GlcNAc
# Summary of the method: as §1
# [6] = target: Fuc(a1-2)[GalNAc(a1-3)]Gal(b1-4)GlcNAc(b1-2)Man(a1-3)[Fuc(a1-2)[GalNAc(a1-3)]Gal(b1-4)GlcNAc(b1-2)Man(a1-6)]Man(b1-4)GlcNAc(b1-4)[Fuc(a1-6)]GlcNAc
# Summary of the method: as §1
# [7] = target: Fuc(a1-2)[GalNAc(a1-3)]Gal(b1-4)GlcNAc(b1-3)Gal(b1-4)GlcNAc
# Summary of the method: as §1
# [8] = target: Fuc(a1-2)[GalNAc(a1-3)]Gal(b1-4)GlcNAc(b1-3)Gal(b1-4)GlcNAc(b1-3)Gal(b1-4)GlcNAc
# Summary of the method: as §1
# [9] = target: Fuc(a1-2)[GalNAc(a1-3)]Gal(b1-4)GlcNAc(b1-3)GalNAc
# Summary of the method: as §1
# [10] = target: Fuc(a1-2)[GalNAc(a1-3)]Gal(b1-4)GlcNAc(b1-3)[Fuc(a1-2)[GalNAc(a1-3)]Gal(b1-4)GlcNAc(b1-6)]GalNAc
# Summary of the method: as §1
# [11] = target: Fuc(a1-2)[GalNAc(a1-3)]Gal(b1-4)GlcNAc(b1-6)GalNAc
# Summary of the method: as §1
# [12] = target: Fuc(a1-2)[GalNAc(a1-3)]Gal(b1-4)[Fuc(a1-3)]GlcNAc
# Summary of the method: as §1
# [13] = target: Fuc(a1-2)[GalNAc(a1-3)]Gal(b1-4)[Fuc(a1-3)]GlcNAc(b1-3)GalNAc
# Summary of the method: as §1
# [14] = target: Fuc(a1-2)[GalNAc(a1-4)]Gal(b1-4)GlcNAc
# Summary of the method: as §1
# [15] = target: Fuc(a1-2)[GalNAc(b1-3)]Gal
# Summary of the method: as §1
# Fuc(a1-3)GlcNAc = target: Fuc(a1-3)GlcNAc
# Summary of the method: as §1
# [16] = target: Fuc(a1-3)[Gal(b1-4)]Glc6S
# Summary of the method: as §1
# [17] = target: Fuc(a1-3)[Gal(b1-4)]GlcNAc
# Summary of the method: as §1
# [18] = target: Fuc(a1-3)[Gal(b1-4)]GlcNAc(b1-2)Man
# Summary of the method: as §1
# [19] = target: Fuc(a1-3)[Gal(b1-4)]GlcNAc(b1-2)Man(a1-3)[Fuc(a1-3)[Gal(b1-4)]GlcNAc(b1-2)Man(a1-6)]Man(b1-4)GlcNAc(b1-4)GlcNAc
# Summary of the method: as §1
# [20] = target: Fuc(a1-3)[Gal(b1-4)]GlcNAc(b1-2)Man(a1-3)[Fuc(a1-3)[Gal(b1-4)]GlcNAc(b1-2)Man(a1-6)]Man(b1-4)GlcNAc(b1-4)[Fuc(a1-6)]GlcNAc
# Summary of the method: as §1
# [21] = target: Fuc(a1-3)[Gal(b1-4)]GlcNAc(b1-3)Gal(b1-3)[Fuc(a1-4)]GlcNAc
# Summary of the method: as §1
# [22] = target: Fuc(a1-3)[Gal(b1-4)]GlcNAc(b1-3)Gal(b1-4)[Fuc(a1-3)]GlcNAc
# Summary of the method: as §1
# [23] = target: Fuc(a1-3)[Gal(b1-4)]GlcNAc(b1-3)Gal(b1-4)[Fuc(a1-3)]GlcNAc(b1-3)Gal(b1-4)[Fuc(a1-3)]GlcNAc
# Summary of the method: as §1
# [24] = target: Fuc(a1-3)[Gal(b1-4)]GlcNAc(b1-3)GalNAc
# Summary of the method: as §1
# [25] = target: Fuc(a1-3)[Gal(b1-4)]GlcNAc(b1-6)GalNAc
# Summary of the method: as §1
# [26] = target: Fuc(a1-3)[Gal(b1-4)]GlcNAc(b1-6)[Gal(b1-3)GlcNAc(b1-3)]Gal(b1-4)Glc
# Summary of the method: as §1
# [27] = target: Fuc(a1-3)[Gal(b1-4)]GlcNAc6S
# Summary of the method: as §1
# [28] = target: Fuc(a1-3)[Gal3S(b1-4)]Glc
# Summary of the method: as §1
# [29] = target: Fuc(a1-3)[Gal3S(b1-4)]GlcNAc
# Summary of the method: as §1
# [30] = target: Fuc(a1-3)[Gal3S(b1-4)]GlcNAc6S
# Summary of the method: as §1
# [31] = target: Fuc(a1-3)[GalNAc(b1-4)]GlcNAc
# Summary of the method: as §1
# [32] = target: Fuc(a1-3)[GalNAc(b1-4)]GlcNAc6S
# Summary of the method: as §1
# Fuc(a1-4)GlcNAc = target: Fuc(a1-4)GlcNAc
# Summary of the method: as §1
# Fuc(b1-3)GlcNAc = target: Fuc(b1-3)GlcNAc
# Summary of the method: as §1
# Gal(a1-2)Gal = target: Gal(a1-2)Gal
# Summary of the method: as §1
# Gal(a1-3)Gal = target: Gal(a1-3)Gal
# Summary of the method: as §1
binder,measurement,setting,value
B1,glycan array binding signal (z-score),[1],-0.208
same,glycan array binding signal (z-score),[2],-0.135
same,glycan array binding signal (z-score),[3],-0.133
same,glycan array binding signal (z-score),[4],-0.201
same,glycan array binding signal (z-score),[5],-0.195
same,glycan array binding signal (z-score),[6],-0.191
same,glycan array binding signal (z-score),[7],-0.165
same,glycan array binding signal (z-score),[8],-0.056
same,glycan array binding signal (z-score),[9],-0.153
same,glycan array binding signal (z-score),[10],-0.199
same,glycan array binding signal (z-score),[11],-0.206
same,glycan array binding signal (z-score),[12],-0.138
same,glycan array binding signal (z-score),[13],-0.011
same,glycan array binding signal (z-score),[14],-0.092
same,glycan array binding signal (z-score),[15],-0.12
same,glycan array binding signal (z-score),Fuc(a1-3)GlcNAc,-0.127
same,glycan array binding signal (z-score),[16],-0.149
same,glycan array binding signal (z-score),[17],-0.153
same,glycan array binding signal (z-score),[18],-0.198
same,glycan array binding signal (z-score),[19],-0.131
same,glycan array binding signal (z-score),[20],-0.008
same,glycan array binding signal (z-score),[21],-0.174
same,glycan array binding signal (z-score),[22],-0.177
same,glycan array binding signal (z-score),[23],-0.189
same,glycan array binding signal (z-score),[24],-0.197
same,glycan array binding signal (z-score),[25],-0.151
same,glycan array binding signal (z-score),[26],-0.155
same,glycan array binding signal (z-score),[27],-0.2
same,glycan array binding signal (z-score),[28],-0.171
same,glycan array binding signal (z-score),[29],-0.11
same,glycan array binding signal (z-score),[30],-0.145
same,glycan array binding signal (z-score),[31],-0.134
same,glycan array binding signal (z-score),[32],-0.208
same,glycan array binding signal (z-score),Fuc(a1-4)GlcNAc,-0.23
same,glycan array binding signal (z-score),Fuc(b1-3)GlcNAc,-0.158
same,glycan array binding signal (z-score),Gal(a1-2)Gal,5.94
same,glycan array binding signal (z-score),Gal(a1-3)Gal,0.22
